Experimental data taken from the supplement of paper PMC8728848.
This is one part of the list.

What was measured:
Test in all cases: glycan array binding signal (z-score within array); higher = stronger binding
Conditions in all cases: glycan notation: IUPAC condensed, linker removed
Gal(b1-4)Glc = target: Gal(b1-4)Glc
Procedure, shortened: (§1)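 Glycan array data were curated from 3228 arrays in the Consortium for Functional Glycomics database and kept only where the protein sequence was available. Glycan names were converted to IUPAC-condensed notation, and columns mapping to the same glycan were averaged. The binding signal is a within-array Z-score, averaged across arrays of the same protein sequence at different concentrations or buffers and across linkers. Negative Z-scores can be read as non-binding.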

Gal(b1-4)Glc6S = target: Gal(b1-4)Glc6S
Procedure, shortened: as §1

Gal(b1-4)GlcNAc = target: Gal(b1-4)GlcNAc
Procedure, shortened: as §1

[1] = target: Gal(b1-4)GlcNAc(a1-6)Gal(b1-4)GlcNAc
Procedure, shortened: as §1

Gal(b1-4)GlcNAc(b1-2)Man = target: Gal(b1-4)GlcNAc(b1-2)Man
Procedure, shortened: as §1

[2] = target: Gal(b1-4)GlcNAc(b1-2)Man(a1-3)Man(b1-4)GlcNAc(b1-4)GlcNAc
Procedure, shortened: as §1

[3] = target: Gal(b1-4)GlcNAc(b1-2)Man(a1-3)[Gal(b1-4)GlcNAc(b1-2)Man(a1-6)]Man(b1-4)GlcNAc(b1-4)GlcNAc
Procedure, shortened: as §1

[4] = target: Gal(b1-4)GlcNAc(b1-2)Man(a1-3)[Gal(b1-4)GlcNAc(b1-2)Man(a1-6)]Man(b1-4)GlcNAc(b1-4)[Fuc(a1-6)]GlcNAc
Procedure, shortened: as §1

[5] = target: Gal(b1-4)GlcNAc(b1-2)Man(a1-3)[Gal(b1-4)GlcNAc(b1-2)Man(a1-6)][Gal(b1-4)GlcNAc(b1-4)]Man(b1-4)GlcNAc(b1-4)[Fuc(a1-6)]GlcNAc
Procedure, shortened: as §1

[6] = target: Gal(b1-4)GlcNAc(b1-2)Man(a1-3)[Gal(b1-4)GlcNAc(b1-2)Man(a1-6)][GlcNAc(b1-4)]Man(b1-4)GlcNAc(b1-4)[Fuc(a1-6)]GlcNAc
Procedure, shortened: as §1

[7] = target: Gal(b1-4)GlcNAc(b1-2)Man(a1-3)[GlcNAc(b1-2)Man(a1-6)]Man(b1-4)GlcNAc(b1-4)GlcNAc
Procedure, shortened: as §1

[8] = target: Gal(b1-4)GlcNAc(b1-2)Man(a1-3)[GlcNAc(b1-4)][Gal(b1-4)GlcNAc(b1-2)Man(a1-6)]Man(b1-4)GlcNAc(b1-4)GlcNAc
Procedure, shortened: as §1

[9] = target: Gal(b1-4)GlcNAc(b1-2)Man(a1-3)[Man(a1-6)]Man(b1-4)GlcNAc(b1-4)GlcNAc
Procedure, shortened: as §1

[10] = target: Gal(b1-4)GlcNAc(b1-2)Man(a1-6)Man(b1-4)GlcNAc(b1-4)GlcNAc
Procedure, shortened: as §1

[11] = target: Gal(b1-4)GlcNAc(b1-2)Man(a1-6)[GlcNAc(b1-2)Man(a1-3)]Man(b1-4)GlcNAc(b1-4)GlcNAc
Procedure, shortened: as §1

[12] = target: Gal(b1-4)GlcNAc(b1-2)Man(a1-6)[Man(a1-3)]Man(b1-4)GlcNAc(b1-4)GlcNAc
Procedure, shortened: as §1

[13] = target: Gal(b1-4)GlcNAc(b1-2)[Gal(b1-4)GlcNAc(b1-4)]Man(a1-3)[Gal(b1-4)GlcNAc(b1-2)Man(a1-6)]Man(b1-4)GlcNAc(b1-4)GlcNAc
Procedure, shortened: as §1

[14] = target: Gal(b1-4)GlcNAc(b1-2)[Gal(b1-4)GlcNAc(b1-4)]Man(a1-3)[Gal(b1-4)GlcNAc(b1-2)[Gal(b1-4)GlcNAc(b1-6)]Man(a1-6)]Man(b1-4)GlcNAc(b1-4)GlcNAc
Procedure, shortened: as §1

[15] = target: Gal(b1-4)GlcNAc(b1-2)[Gal(b1-4)GlcNAc(b1-4)]Man(a1-3)[GlcNAc(b1-4)][Gal(b1-4)GlcNAc(b1-2)Man(a1-6)]Man(b1-4)GlcNAc(b1-4)GlcNAc
Procedure, shortened: as §1

[16] = target: Gal(b1-4)GlcNAc(b1-2)[Gal(b1-4)GlcNAc(b1-4)]Man(a1-3)[GlcNAc(b1-4)][Gal(b1-4)GlcNAc(b1-2)[Gal(b1-4)GlcNAc(b1-6)]Man(a1-6)]Man(b1-4)GlcNAc(b1-4)GlcNAc
Procedure, shortened: as §1

[17] = target: Gal(b1-4)GlcNAc(b1-2)[Gal(b1-4)GlcNAc(b1-6)]Man(a1-6)[Gal(b1-4)GlcNAc(b1-2)Man(a1-3)]Man(b1-4)GlcNAc(b1-4)GlcNAc
Procedure, shortened: as §1

[18] = target: Gal(b1-4)GlcNAc(b1-2)[Gal(b1-4)GlcNAc(b1-6)]Man(a1-6)[Gal(b1-4)GlcNAc(b1-2)Man(a1-3)]Man(b1-4)GlcNAc(b1-4)[Fuc(a1-6)]GlcNAc
Procedure, shortened: as §1

[19] = target: Gal(b1-4)GlcNAc(b1-2)[Gal(b1-4)GlcNAc(b1-6)]Man(a1-6)[GlcNAc(b1-4)][Gal(b1-4)GlcNAc(b1-2)Man(a1-3)]Man(b1-4)GlcNAc(b1-4)GlcNAc
Procedure, shortened: as §1

[20] = target: Gal(b1-4)GlcNAc(b1-2)[Gal(b1-4)GlcNAc(b1-6)]Man(a1-6)[GlcNAc(b1-4)][Gal(b1-4)GlcNAc(b1-2)[Gal(b1-4)GlcNAc(b1-4)]Man(a1-3)]Man(b1-4)GlcNAc(b1-4)[Fuc(a1-6)]GlcNAc
Procedure, shortened: as §1

[21] = target: Gal(b1-4)GlcNAc(b1-3)Gal(b1-3)GalNAc
Procedure, shortened: as §1

[22] = target: Gal(b1-4)GlcNAc(b1-3)Gal(b1-3)GlcNAc
Procedure, shortened: as §1

[23] = target: Gal(b1-4)GlcNAc(b1-3)Gal(b1-4)Glc
Procedure, shortened: as §1

[24] = target: Gal(b1-4)GlcNAc(b1-3)Gal(b1-4)GlcNAc
Procedure, shortened: as §1

[25] = target: Gal(b1-4)GlcNAc(b1-3)Gal(b1-4)GlcNAc(b1-2)Man(a1-3)[Gal(b1-4)GlcNAc(b1-3)Gal(b1-4)GlcNAc(b1-2)Man(a1-6)]Man(b1-4)GlcNAc(b1-4)GlcNAc
Procedure, shortened: as §1

[26] = target: Gal(b1-4)GlcNAc(b1-3)Gal(b1-4)GlcNAc(b1-2)Man(a1-3)[Gal(b1-4)GlcNAc(b1-3)Gal(b1-4)GlcNAc(b1-2)Man(a1-6)]Man(b1-4)GlcNAc(b1-4)[Fuc(a1-6)]GlcNAc
Procedure, shortened: as §1

[27] = target: Gal(b1-4)GlcNAc(b1-3)Gal(b1-4)GlcNAc(b1-2)[Gal(b1-4)GlcNAc(b1-3)Gal(b1-4)GlcNAc(b1-6)]Man(a1-6)[Gal(b1-4)GlcNAc(b1-3)Gal(b1-4)GlcNAc(b1-2)Man(a1-3)]Man(b1-4)GlcNAc(b1-4)GlcNAc
Procedure, shortened: as §1

[28] = target: Gal(b1-4)GlcNAc(b1-3)Gal(b1-4)GlcNAc(b1-2)[Gal(b1-4)GlcNAc(b1-3)Gal(b1-4)GlcNAc(b1-6)]Man(a1-6)[Gal(b1-4)GlcNAc(b1-3)Gal(b1-4)GlcNAc(b1-2)Man(a1-3)]Man(b1-4)GlcNAc(b1-4)[Fuc(a1-6)]GlcNAc
Procedure, shortened: as §1

[29] = target: Gal(b1-4)GlcNAc(b1-3)Gal(b1-4)GlcNAc(b1-3)Gal(b1-4)GlcNAc
Procedure, shortened: as §1

[30] = target: Gal(b1-4)GlcNAc(b1-3)Gal(b1-4)GlcNAc(b1-3)Gal(b1-4)GlcNAc(b1-2)Man(a1-3)[Gal(b1-4)GlcNAc(b1-3)Gal(b1-4)GlcNAc(b1-3)Gal(b1-4)GlcNAc(b1-2)Man(a1-6)]Man(b1-4)GlcNAc(b1-4)GlcNAc
Procedure, shortened: as §1

[31] = target: Gal(b1-4)GlcNAc(b1-3)Gal(b1-4)GlcNAc(b1-3)Gal(b1-4)GlcNAc(b1-2)Man(a1-3)[Gal(b1-4)GlcNAc(b1-3)Gal(b1-4)GlcNAc(b1-3)Gal(b1-4)GlcNAc(b1-2)Man(a1-6)]Man(b1-4)GlcNAc(b1-4)[Fuc(a1-6)]GlcNAc
Procedure, shortened: as §1

[32] = target: Gal(b1-4)GlcNAc(b1-3)Gal(b1-4)GlcNAc(b1-3)Gal(b1-4)GlcNAc(b1-2)[Gal(b1-4)GlcNAc(b1-3)Gal(b1-4)GlcNAc(b1-3)Gal(b1-4)GlcNAc(b1-6)]Man(a1-6)[Gal(b1-4)GlcNAc(b1-3)Gal(b1-4)GlcNAc(b1-3)Gal(b1-4)GlcNAc(b1-2)Man(a1-3)]Man(b1-4)GlcNAc(b1-4)[Fuc(a1-6)]GlcNAc
Procedure, shortened: as §1

[33] = target: Gal(b1-4)GlcNAc(b1-3)Gal(b1-4)GlcNAc(b1-3)Gal(b1-4)GlcNAc(b1-3)Gal(b1-4)GlcNAc(b1-2)Man(a1-3)[Gal(b1-4)GlcNAc(b1-3)Gal(b1-4)GlcNAc(b1-3)Gal(b1-4)GlcNAc(b1-3)Gal(b1-4)GlcNAc(b1-2)Man(a1-6)]Man(b1-4)GlcNAc(b1-4)GlcNAc
Procedure, shortened: as §1

B1: mCC1-Hexahis-Precomplexed (Mus musculus), P31809 (protein)
chain: MELASAHLHKGQVPWGGLLLTASLLASWSPATTAEVTIEAVPPQVAEDNNVLLLVHNLPLALGAFAWYKGNTTAIDKEIARFVPNSNMNFTGQAYSGREIIYSNGSLLFQMITMKDMGVYTLDMTDENYRRTQATVRFHVHPILLKPNITSNNSNPVEGDDSVSLTCDSYTDPDNINYLWSRNGESLSEGDRLKLSEGNRTLTLLNVTRNDTGPYVCETRNPVSVNRSDPFSLNIIYGPDTPIISPSDIYLHPGSNLNLSCHAASNPPAQYFWLINEKPHASSQELFIPNITTNNSGTYTCFVNNSVTGLSRTTVKNITVLEPVTQPFLQVTNTTVKELDSVTLTCLSNDIGANIQWLFNSQSLQLTERMTLSQNNSILRIDPIKREDAGEYQCEISNPVSVRRSNSIKLDIIFDPTQGGLSDGHHHHHH
- glycan array binding signal (z-score) (Gal(b1-4)Glc): -0.223
- glycan array binding signal (z-score) (Gal(b1-4)Glc6S): -0.126
- glycan array binding signal (z-score) (Gal(b1-4)GlcNAc): -0.228
- glycan array binding signal (z-score) [1]: -0.282
- glycan array binding signal (z-score) (Gal(b1-4)GlcNAc(b1-2)Man): -0.226
- glycan array binding signal (z-score) [2]: -0.24
- glycan array binding signal (z-score) [3]: -0.196
- glycan array binding signal (z-score) [4]: 0.133
- glycan array binding signal (z-score) [5]: -0.278
- glycan array binding signal (z-score) [6]: -0.167
- glycan array binding signal (z-score) [7]: -0.247
- glycan array binding signal (z-score) [8]: -0.127
- glycan array binding signal (z-score) [9]: -0.222
- glycan array binding signal (z-score) [10]: -0.203
- glycan array binding signal (z-score) [11]: -0.289
- glycan array binding signal (z-score) [12]: -0.048
- glycan array binding signal (z-score) [13]: -0.172
- glycan array binding signal (z-score) [14]: -0.217
- glycan array binding signal (z-score) [15]: -0.255
- glycan array binding signal (z-score) [16]: -0.239
- glycan array binding signal (z-score) [17]: -0.015
- glycan array binding signal (z-score) [18]: -0.215
- glycan array binding signal (z-score) [19]: -0.152
- glycan array binding signal (z-score) [20]: -0.211
- glycan array binding signal (z-score) [21]: -0.158
- glycan array binding signal (z-score) [22]: -0.196
- glycan array binding signal (z-score) [23]: -0.183
- glycan array binding signal (z-score) [24]: -0.228
- glycan array binding signal (z-score) [25]: 3.85
- glycan array binding signal (z-score) [26]: -0.066
- glycan array binding signal (z-score) [27]: -0.167
- glycan array binding signal (z-score) [28]: -0.053
- glycan array binding signal (z-score) [29]: -0.242
- glycan array binding signal (z-score) [30]: 4.96
- glycan array binding signal (z-score) [31]: -0.181
- glycan array binding signal (z-score) [32]: -0.194
- glycan array binding signal (z-score) [33]: -0.133
